Experimental data published in PMC4383634, “Dual-Specificity Anti-sigma Factor Reinforces Control of Cell-Type Specific Gene Expression in Bacillus subtilis” (PLoS Genetics, 2015).
Results are given in words; binding and its absence hold for the method and conditions named. For part of these data: In cells and extracts the contact can be indirect. Some binding calls cover weakened binding; strength is not graded here. Where a sequence is shown, tags or fusion partners need not be part of it. One block for each binder: values may come before it.

Amino acid sequences for entries named in this document (tags omitted).
UniProt P06224: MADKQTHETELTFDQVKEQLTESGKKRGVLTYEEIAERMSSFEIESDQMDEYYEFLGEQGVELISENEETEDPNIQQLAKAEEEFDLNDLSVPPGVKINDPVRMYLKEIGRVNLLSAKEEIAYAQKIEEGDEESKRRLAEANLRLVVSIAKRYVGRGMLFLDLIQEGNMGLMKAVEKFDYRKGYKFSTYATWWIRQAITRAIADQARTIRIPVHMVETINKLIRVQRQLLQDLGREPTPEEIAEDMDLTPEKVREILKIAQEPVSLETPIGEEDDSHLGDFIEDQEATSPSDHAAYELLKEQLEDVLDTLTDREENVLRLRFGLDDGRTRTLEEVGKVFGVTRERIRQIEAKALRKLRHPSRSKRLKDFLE

Assays:
[1] = target: T1, CsfB-GFP fusion protein (B. subtilis) (UniProt P37534); assay: pull-down; GFP-binding protein (GBP) on sepharose beads (GFP-Trap) incubated with cleared whole cell extracts of B. subtilis strains 4 h after the onset of sporulation in resuspension medium; bound proteins eluted and immunoblotted with anti-σ^E, anti-σ^G, anti-σ^K and anti-GFP; CsfB-GFP from P_csfB, P_sigF or P_sigK
T1 sequence: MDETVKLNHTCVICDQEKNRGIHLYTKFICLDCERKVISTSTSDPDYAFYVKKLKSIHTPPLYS

[2] = target: T2, GAL4 DNA binding domain-σ^(E 30–141) fusion (B. subtilis) (UniProt P06222); assay: two-hybrid; GAL4-based yeast two-hybrid; CsfB fused to the activation domain, sigma factors or fragments to the DNA binding domain; lacZ reporter, colony lift assay and β-galactosidase assay in liquid medium
T2 sequence: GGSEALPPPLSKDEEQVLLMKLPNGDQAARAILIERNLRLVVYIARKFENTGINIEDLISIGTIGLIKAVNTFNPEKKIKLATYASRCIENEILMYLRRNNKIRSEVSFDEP

[3] = target: T3, GAL4 DNA binding domain-σ^(E 30–172) fusion (B. subtilis) (UniProt P06222); assay: as above
T3 sequence: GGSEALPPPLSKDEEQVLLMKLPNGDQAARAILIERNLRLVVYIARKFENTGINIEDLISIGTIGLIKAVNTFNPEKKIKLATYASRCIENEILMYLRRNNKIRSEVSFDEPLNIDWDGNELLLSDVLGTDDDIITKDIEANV

[4] = target: GAL4 DNA binding domain-σ^A fusion (B. subtilis) (UniProt P06224); assay: as above
[5] = target: T4, GAL4 DNA binding domain-σ^E fusion (B. subtilis) (UniProt P06222); assay: as above
T4 sequence: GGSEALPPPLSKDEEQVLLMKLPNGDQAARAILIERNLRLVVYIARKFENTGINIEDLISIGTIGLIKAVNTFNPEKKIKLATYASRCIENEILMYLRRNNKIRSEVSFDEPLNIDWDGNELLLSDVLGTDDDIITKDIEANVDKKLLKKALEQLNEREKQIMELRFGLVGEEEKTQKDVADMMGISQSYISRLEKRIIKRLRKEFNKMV

[6] = target: T5, GAL4 DNA binding domain-σ^F fusion (B. subtilis) (UniProt P07860); assay: as above
T5 sequence: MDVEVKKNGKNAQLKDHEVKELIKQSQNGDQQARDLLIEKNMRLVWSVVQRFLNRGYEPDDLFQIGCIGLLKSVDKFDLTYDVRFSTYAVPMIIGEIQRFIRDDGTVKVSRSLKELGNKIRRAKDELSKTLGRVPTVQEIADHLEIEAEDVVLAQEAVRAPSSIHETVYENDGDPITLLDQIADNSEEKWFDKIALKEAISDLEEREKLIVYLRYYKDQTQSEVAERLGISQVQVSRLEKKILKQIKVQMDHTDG

[7] = target: T6, GAL4 DNA binding domain-σ^G fusion (B. subtilis) (UniProt P19940); assay: as above
T6 sequence: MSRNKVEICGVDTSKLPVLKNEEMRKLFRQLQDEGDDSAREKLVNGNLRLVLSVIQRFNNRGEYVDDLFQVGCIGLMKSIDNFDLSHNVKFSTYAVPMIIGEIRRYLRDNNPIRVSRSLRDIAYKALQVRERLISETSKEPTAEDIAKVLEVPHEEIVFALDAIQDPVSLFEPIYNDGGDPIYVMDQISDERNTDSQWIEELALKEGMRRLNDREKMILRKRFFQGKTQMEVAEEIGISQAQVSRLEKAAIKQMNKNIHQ

[8] = target: T7, GST-σ^(E 141–172) (B. subtilis) (UniProt P06222); assay: pull-down; GST or GST-σ^E fusions on glutathione beads incubated with CsfB-Strep II (100 nM); after washing, eluted proteins immunoblotted with anti-Strep II tag antibody; both purified
T7 sequence: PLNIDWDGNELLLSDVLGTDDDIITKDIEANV

[9] = target: T8, GST-σ^(E 172–239) (B. subtilis) (UniProt P06222); assay: as above
T8 sequence: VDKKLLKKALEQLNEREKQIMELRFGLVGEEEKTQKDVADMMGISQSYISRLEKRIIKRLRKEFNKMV

[10] = target: T9, GST-σ^(E 30–98) (B. subtilis) (UniProt P06222); assay: as above
T9 sequence: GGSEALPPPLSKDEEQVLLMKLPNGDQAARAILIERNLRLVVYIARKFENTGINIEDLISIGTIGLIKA

[11] = target: T10, GST-σ^(E 98–141) (B. subtilis) (UniProt P06222); assay: as above
T10 sequence: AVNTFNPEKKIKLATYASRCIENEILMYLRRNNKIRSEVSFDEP

binding [1]: binds
B1: σ^E (in sporulating B. subtilis cells) (protein, UniProt P06222 30-239)
chain: T4 sequence

binding [1]: binds
B2: σ^G (in sporulating B. subtilis cells) (protein, UniProt P19940 1-260)
chain: T6 sequence

binding [2]: binds
binding [3]: binds
binding [4]: no binding
binding [5]: binds
binding [6]: no binding
binding [7]: binds
B3: GAL4 activation domain-CsfB fusion (protein, UniProt P37534 1-64)
chain: T1 sequence

B4: CsfB-StrepII-tagged protein (natural protein, B. subtilis, UniProt P37534 1-64, looked up)
chain: T1 sequence
notes: CsfB (Gin), anti-sigma factor of B. subtilis; source: E. coli, overproduced and partially purified; not shown: Strep II tag, C-terminal, kept
binding [8]: no binding (tested: 100 nM)
binding [9]: no binding (tested: 100 nM)
binding [10]: no binding (tested: 100 nM)
binding [11]: no binding (tested: 100 nM)
